According to the RNAGym collection of RNA variant scans (doi:10.1101/gad.245936.114):
This sample is rich in variants without activity.

B1: tRNA (parent)
chain: CUCUCGGUAGCCAAGUUGGUUUAAGGCGCAAGACUUUAAUUUAUCACUACGAAAUCUUGAGAUCGGGCGUUCGACUCGCCCCCGGGAGAUUUUUUCCUCGAGCAA

Variants of: B1
Assay: nonsense suppression (GFP-seq) (ratio to wild type); higher = more function; SUP4oc tRNA, yeast GFP reporter sort-seq
Method in brief: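 Yeast were grown in raffinose/galactose medium with 80 mg/L adenine, each strain bearing a genome-integrated ochre-suppressor tRNA variant from a ~3% random-mutation library, a galactose-driven GFP ochre reporter, and RFP. After sorting into GFP/RFP bins, every bin was sequenced on an Illumina platform at phred ≥30. The GFPSEQ value, a measure of nonsense suppression, is the weighted bin median GFP/RFP relative to the unmutated parent tRNA, using each variant's estimated cell share per bin as the weight. Only variants with ≥100 reads and ≥30 cells were included.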

Nonsense suppression, 0.194:
U4A G61U

Nonsense suppression, 1.07:
C3U G86A

Nonsense suppression, 0.206:
C3U U21C G61A

Nonsense suppression, 0.202:
C3U U58C

Nonsense suppression, 0.072:
U4A U20A

Nonsense suppression, 0.0324:
U4A G85A

Nonsense suppression, 0.528:
C3U G85A

Nonsense suppression, ≤ 0.026:
C3U C79G
C3U C80A
C3U C81A
C3U C83G
C3U G6A G10C
C3U G6U G18A G32A
C3U G6U G61A G65A
C3U G6U G61U C79G
C3U G7A U20C G61U
C3U G7C A33G G65A G67A
C3U G7C U8A G59U G78A
C3U G10C A23U C83G G85A A89U
C3U G10C U16G C27G C29U
C3U G10U G15C
C3U G15A C34U C75U
C3U G15C A31U U35A
C3U G15C U63G C75A
C3U G15U A31G C75G G86U
C3U G18A C56G G65C
C3U G18C U63C
C3U G18U
C3U G18U G19C G67A C80U
C3U G18U G32C
C3U G19A C72G
C3U G19A G69U C81A
C3U G25A G61U
C3U G25U
C3U G25U A33C C72G A87C G88U
C3U G25U G85A
C3U G26A
C3U G26C
C3U G26C C64A
C3U G26U C80A G88U
C3U G26U U70G C80G
C3U G28U
C3U G28U G32A A33G
C3U G32A
C3U G32A C82U G88U
C3U G59A
C3U G59C G61A
C3U G65A C72G G73U
C3U G66C G88U
C3U G67C
C3U G69C
C3U G73C A87C
C3U G78C
C3U G84U
C3U G85C
C3U G88A
C3U U4A
C3U U4A C12A A13U U71A
C3U U4A U58C G61A
C3U U4C A14C U57C
C3U U4C A14G G28U A60C
C3U U4C C79G
C3U U4C U16C G19C U63C G66A
C3U U4G C12U G15A
C3U U8A A14U A31U G67U
C3U U8A A54G
C3U U8C C11G U63A
C3U U8C G61A A62C
C3U U8G G67A
C3U U17C G73A
C3U U20A G26A
C3U U20G A24G
C3U U21A G61C C68U U76C
C3U U21C A33U
C3U U21C G59C
C3U U21C U55G
C3U U21G G25U G69U A74G
C3U U22A A24G
C3U U22C G26A A33G A62U G66A U76G G78U
C3U U22C U55A
C3U U22G A23U G78A
C3U U22G A24U G26A G32A
C3U U22G C27A A60U
C3U U35A C79G
C3U U35C C80A
C3U U35G U58G G67A C75G
C3U U55A U63A
C3U U55A U63A G86C
C3U U57A G73A
C3U U57C
C3U U57C G66U
C3U U57C G69A G73A G85A
C3U U57G G85C
C3U U58G C77A G78A
C3U U63A C81G
C3U U63C C82A
C3U U63G G67C
C3U U70C
C3U U76A C80U
U4A A14C C29A A60U G86A
U4A A14U A30C A31C
U4A A23C G65C C82G G86C
U4A A23C G85C
U4A A23U
U4A A24G A54G G67C
U4A A24U U57A G73A
U4A A30U
U4A A30U C77G
U4A A30U C81A
U4A A60C U71A
U4A A74C
U4A A87C
U4A C5A A9G C11U
U4A C5A U55C U70A C75G
U4A C5A U63G
U4A C5U G7U C11A G25C
U4A C11A G61C
U4A C11G G26C G61A C83G
U4A C11U A33G G86U A87C
U4A C12G C29U A31G A54U G67A U76C A89C
U4A C12U
U4A C12U U55G G61C
U4A C56U C64A G65A G66C G73U
U4A C64U G65C C81G A87U
U4A C64U U70A A74G
U4A C68G C77G
U4A C77U A89U
U4A G7A A13U G66C
U4A G7C G28U
U4A G7U C29U U76C
U4A G7U G15A U21A
U4A G7U G69C
U4A G10A C83U
U4A G15U A60G
U4A G18A C77A
U4A G19A A31U A62G
U4A G19A C29A
U4A G25C G69C
U4A G26A A33U
U4A G28A U70C
U4A G28U G84A
U4A G32A A33U G78A
U4A G59U A62U C83G
U4A G67C C68U
U4A G69C U71C G84C
U4A G69U
U4A G73A
U4A G84C G88U
U4A U8A A23U G69U
U4A U8G
U4A U16A A24U U63A G78C
U4A U17A U22G A24C
U4A U17C G32A C77G
U4A U17G U76A
U4A U20C C83A
U4A U22C A31U A33G
U4A U22C G66A A74U

Nonsense suppression, 0.2:
U4A A9U

Nonsense suppression, 1.11:
C3U U4C A9C

Nonsense suppression, 0.247:
U4A U16G

Nonsense suppression, 0.0942:
U4A A14G

Nonsense suppression, 0.0398:
C3U U76A

Nonsense suppression, 0.0916:
C3U U8C

Nonsense suppression, 0.0656:
C3U G73A

Nonsense suppression, 0.0941:
C3U C81U

Nonsense suppression, 0.12:
C3U U63A

Nonsense suppression, 0.169:
C3U U22A
